Several values for one entry are separate records, joined by “and”; a condition that tells them apart may be missing. Identical values can stand only once. Screen size: about 340,000 compounds; about 12,000 (3.5%) were called active. The shares of active, inactive and inconclusive entries below differ from those in the screen. The call rests on the fitted dose curve; in most records, active means well fitted inhibition curve with a large enough effect; inconclusive means small, poorly fitted or top-dose-only effect, or another doubt; inactive means no such curve, though single readings can be large or run the other way. Where the call is inconclusive, the potency comes from a doubtful curve fit.
Test: qHTS Assay for Inhibitors of Hepatitis C Virus (HCV)
Conditions: Huh7.5.1 HCVcc-Cre (HCVcc is cell-culture hepatitis C virus) infection, luciferase reporter, 44 h; activity change, negative = inhibition: at 41.8 µM (top of the series)
Outline: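 Whole-lifecycle infectious HCVcc-Cre system; cells 1,000/well, compound then virus (~0.5 moi) added 4 h after plating, 44 h culture. Luciferase read 15 sec following 15 min substrate incubation, room temp.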
On the % scale 0 is the no-effect control and ±100 the full control effect; potency means the concentration at half of the fitted maximal effect; tags describe the fitted curve by direction and shape.

Row | Compound | Potency | activity change, negative = inhibition
1 | COc1cc(OC)c(NC(=O)CCc2ccccc2)cc1Cl | inconclusive: 31.6 µM [inhibitor, single point] | –
2 | COc1ccc(C2CC(C(F)(F)F)n3nc(C(=O)NCc4c(C)nn(C)c4C)c(Cl)c3N2)cc1 (stereo unspecified) | inconclusive: 35.5 µM [inhibitor, single point] and inconclusive: 25.1 µM [inhibitor, single point] | –
3 | COc1ccc(/C(C)=N/OCC(=O)N=Nc2c(O)[nH]c3ccc(Br)cc23)cc1 | inconclusive: 5.62 µM [inhibitor, single point] | –
4 | COc1cc2c(cc1OC)C(c1cccc(OC)c1OC)CC(=O)N2 (stereo unspecified) | – | inactive: -3.56%
5 | C=CCc1cc(Cl)ccc1OCCOCCNC(C)(C)C | inconclusive: 12.6 µM [inhibitor, single point] | –
6 | C[C@]12c3[nH]c4ccccc4c3CCN1C(=O)C(CC(=O)NCc1cccc(C(F)(F)F)c1)C[C@@H]2C(=O)N1CCCCC1 (stereo partly specified) | inconclusive: 14.1 µM [inhibitor, single point] | –
7 | COc1ccc(CCNC(=O)c2cc(S(=O)(=O)N3CCC4(CC3)OCCO4)ccc2F)cc1OC | active: 11.2 µM | –
8 | CCn1nc(C)c(CNC(=O)c2cc(COc3ccccc3SC)on2)c1C | active: 12.6 µM | –
9 | Cn1c2ccc(F)cc2c2nc3ccccc3nc21 | inconclusive: 31.6 µM [inhibitor, single point] | –
10 | Cc1ccc(C(=O)NC(Cc2c[nH]c3ccccc23)C(=O)O)cc1 (stereo unspecified) | – | inactive: 4.79%
11 | Cc1noc(C)c1COc1ccccc1C(=O)NNC(=O)C(C)Oc1ccccc1F (stereo unspecified) | inconclusive: 5.62 µM [inhibitor, single point] | –
12 | Cc1cccc(NS(=O)(=O)c2ccc(C(=O)N3CCC3)cc2)c1C | inconclusive: 4.47 µM [inhibitor, full curve] | –
13 | Cc1cc(C)c(NC(=O)/C(=C/c2ccccc2)c2ccccc2)c(C)c1 | – | inactive: 5.25%
14 | CC1CCCCN1S(=O)(=O)c1ccccc1[N+](=O)[O-] (stereo unspecified) | inconclusive: 3.55 µM [inhibitor, single point] | –
15 | C/C(=N\NC(=O)c1ccc2c(c1)OCO2)c1ccc(C(=O)O)s1 | – | inactive: 5.95%
16 | COc1ccc2c(CC(=O)Nc3ccc(OC)c(S(=O)(=O)N4CCOCC4)c3)coc2c1 | – | inactive: -22.2%
17 | CS(=O)(=O)c1ccc(C(=O)Nc2ccc(N3CCCCC3)cc2)c(Cl)c1 | inconclusive: 22.4 µM [inhibitor, single point] | –
18 | CCSc1ncc(/C=N/Nc2ccccc2)n1C | inconclusive: 17.8 µM [inhibitor, partial curve, poor fit] | –
19 | O=C1c2ccccc2C(=O)c2c1cccc2N1CCN(Cc2ccccc2)CC1 | inconclusive: 22.4 µM [inhibitor, single point] | –
20 | Cc1ccc(Nc2c(O)nc[nH]c2=O)cc1C | – | inactive: 8.83%
21 | COc1ccc(C#Cc2c(-c3ccccc3)n(C)c3ccccc23)cc1 | inconclusive: 7.94 µM [inhibitor, single point] | –

Row | Compound | Potency | activity change, negative = inhibition
22 | CCOP(=O)(OCC)c1nc(/C=C/c2ccccc2)oc1NCc1ccccc1 | inconclusive: 31.6 µM [inhibitor, single point] | –
23 | CC(C)Sc1nc(SCC(=O)NCc2ccco2)c2c3c(sc2n1)COC(C)(C)C3 | inconclusive: 35.5 µM [inhibitor, partial curve, poor fit] | –
24 | O=C1N[C@@H](Cc2ccccc2)COC(=O)[C@H](Cc2ccc(F)cc2)C/C=C\C[C@H]1CC(=O)N(CCO)Cc1ccccc1 | – | inactive: -20.9%
25 | C[C@H]1CN([C@@H](C)CO)C(=O)c2cccc(NC(=O)Nc3ccc(C(F)(F)F)cc3)c2O[C@@H]1CN(C)S(=O)(=O)c1ccc(Cl)cc1 | inconclusive: 14.1 µM [inhibitor, single point] | –
26 | N#CC1=C(SCc2ccc(C#N)cc2)N=C(N)C(c2nc(-c3ccccc3)cs2)C12CCCCC2 (stereo unspecified) | inconclusive: 11.2 µM [inhibitor, partial curve] | –
27 | Cc1nc2ncnn2c(N2CCCC(C(=O)Nc3ccccc3Br)C2)c1C (stereo unspecified) | inconclusive: 11.2 µM [inhibitor, single point] | –
28 | CCOc1ccc(C(C(=O)NCC2CCCO2)N(Cc2cccs2)C(=O)c2snc(C(N)=O)c2N)cc1 (stereo unspecified) | inconclusive: 2.51 µM [inhibitor, full curve, poor fit] | –
29 | Cc1ccc(C)c(CN2CCC(CNC(=O)Nc3cccc(Cl)c3C)CC2)c1 | inconclusive: 31.6 µM [inhibitor, single point] | –
30 | O=C(O)CCN1C(=O)c2ccccc2Sc2ncccc21 | – | inactive: 12%
31 | COCCn1c(=NC(=O)CSC(C)=O)sc2cc(OC)ccc21 | inconclusive: 2.24 µM [inhibitor, single point] | –
32 | CCN1CCCC1CNC(=O)CSc1cc(=O)n(CC)c2ccccc12 (stereo unspecified) | inconclusive: 31.6 µM [inhibitor, single point] | –
33 | CCn1cc(C2=NC(c3ccccc3)CO2)c2ccccc21 (stereo unspecified) | inconclusive: 22.4 µM [inhibitor, single point] | –
34 | O=C(NC(=S)Nc1cccc(Cl)c1N1CCOCC1)c1cccs1 | inconclusive: 22.4 µM [inhibitor, single point] | –
35 | COc1cccc(CN(C)C(=O)Cc2c[nH]c3ccccc23)c1OC | inconclusive: 11.2 µM [inhibitor, single point] | –
36 | CCC(=O)N1c2ccc(S(=O)(=O)NCc3ccccc3)cc2CC1C (stereo unspecified) | inconclusive: 22.4 µM [inhibitor, single point] | –
37 | CCOc1ccc(CNC(=O)C2CCN(S(=O)(=O)c3ccc4c(c3)CCCC(=O)N4)CC2)cc1 | – | inactive: -20.4%
38 | COc1ccc(NC(=O)c2nc(C)c(C3(C)CC(c4ccccc4)=NO3)s2)cc1 (stereo unspecified) | inconclusive: 3.98 µM [inhibitor, full curve] | –
39 | Cc1ccc(C)c(NC(=O)COC(=O)c2cccc3c2C(=O)c2ccccc2C3=O)c1 | inconclusive: 2.24 µM [inhibitor, full curve, poor fit] | –
40 | COC(=O)c1ccc(NC(=O)Nc2ccccc2C)cc1 | inconclusive: 14.1 µM [inhibitor, partial curve] | –
41 | COc1cc(NC(=O)N[C@H](C(=O)O)C(C)C)cc(OC)c1 | – | inactive: 23.3%

From PubChem BioAssay AID651820 (National Center for Advancing Translational Sciences (NCATS), 2012)
